Results from ChEMBL document CHEMBL4888484, “Replenishing the malaria drug discovery pipeline: Screening and hit evaluation of the MMV Hit Generation Library 1 (HGL1) against asexual blood stage Plasmodium falciparum ,using a nano luciferase reporter read-out” (2022).
In all, about 150,000 compounds went through this assay and about 540 (0.36%) showed an effect of 50% or more. The list shows a part of the results.

The molecules below were run on Plasmodium falciparum (assay: Primary screen in NF54 nanoGlo assay, in single point, at 2uM, 72h; a lower Z score goes with more inhibition). Conditions: timepoint 72 hour.
Type: functional, Erythrocyte

Row | SMILES | % Inhibition [%] | Z score
1 | Cc1ccccc1Nc1nnc(CC(=O)N2CCN(c3ccccc3)CC2)s1 | -16 | 1.89
2 | CCC1CN(C(=O)NCCS(=O)(=O)N(CC)CC)CC(C)O1 (stereo not drawn) | -10 | 0.94
3 | O=C(CN1CCOCC1)N1CCC[C@H]1c1cccs1 | -8 | 1.2
4 | C(=Cc1nnc(-c2cnccn2)o1)c1ccc2c(c1)OCCO2 | -5 | 0.88
5 | Cc1cccc(C)c1OCC(O)CN1C(=O)C2CCCCN2C1=O (stereo not drawn) | -2 | 0.45
6 | CC(C)=CCC/C(C)=C/CNC(=O)c1c(Cl)cnn1C | 7 | -1.27
7 | CN1CCC(N(C[C@H]2CCOC2)C(=O)c2ccc3c(c2)OCO3)CC1 | -10 | 1.32
8 | CC1=C[C@@H](CN2CCC[C@H]2CO)[C@H](C(C)C)C[C@H]1Cc1nnc(-c2ccncc2)o1 | 6 | -0.71
9 | Cc1ccc(-c2noc(-c3cccn4c(=O)n(CC(=O)N(C)C5CCCCC5)nc34)n2)cc1 | -9 | 1.18
10 | Cn1ccc(CC(=O)Nc2c(Cl)cc(F)cc2Br)n1 | -4 | 0.49
11 | CC(C)c1cc(NC2CC[S+]([O-])C2)ncn1 (stereo not drawn) | -2 | 0.14
12 | COc1ccc(CNC(=O)CNS(=O)(=O)Cc2ccccc2)cc1OC | 1 | -0.15
13 | CCn1c([C@H]2CCN(C(=O)CCC(C)C)C2)nc2cccnc21 | -7 | 0.79
14 | O=C(NC[C@@H](c1ccco1)N1CCOCC1)c1ccco1 | -5 | 0.65
15 | COC[C@H]1CCCN(C(=O)Nc2ccc(-n3cccn3)c(Cl)c2)C1 | 4 | -0.4
16 | COC[C@H]1CCCCN1C(=O)c1cn(Cc2cccc3ccccc23)nn1 | -9 | 1.18
17 | CC1CN(CCC(=O)N(C)CCC#N)CCC1c1ccccc1 (stereo not drawn) | -2 | 0.2
18 | CCCCCOCC(=O)NCc1nc(C)c(C(N)=O)s1 | -6 | 1.26
19 | C=CCn1ncc(-c2cc(-c3ccc(OC)nc3)nc(N)c2C#N)c1C | -7 | 1.38
20 | O=C(C#Cc1ccc2c(c1)OCO2)N1CCCC1 | -13 | 2.6
21 | CC(C)C(=O)N1CCc2ccc(OCc3ccc(C(=O)NCc4cccc(F)c4)o3)cc2[C@@H]1c1ccc(F)cc1 | -10 | 0.98
22 | CCN(CC)C(=O)c1cnc2snc(C)c2c1N1CCC(C(=O)Nc2ccc(Br)c(C)c2)CC1 | 1 | -0.18
23 | CN1CC2(C[C@H]1c1nc(-c3ccncc3)no1)CN(C(=O)CCn1cccn1)C2 | -20 | 2.28
24 | CN=C(NC)N(C)Cc1ccccc1Br | 4 | -0.42
25 | COC(=O)C[C@H](NC(=O)c1cc(C)sn1)c1ccncc1 | 8 | -0.99
26 | CCCN(Cc1ccc2ncccc2c1)[C@@H](C)C(=O)Nc1ccccc1 | 1 | -0.07
27 | c1cc2c(cc1CN1CCCC3(C1)OCCO3)CCO2 | -7 | 0.63

Row | SMILES | % Inhibition [%] | Z score
28 | CONC(=O)C1CN(c2nc3c(F)cccc3s2)C1 | -7 | 1.01
29 | O=C(NCCn1nnc2cc(C(=O)N3CCCCC3)ccc21)NCc1ccco1 | -3 | 0.35
30 | O=S(=O)(c1cccc(F)c1)N1CC(c2nc(CCOCC3CCOCC3)no2)C1 | -10 | 1.29
31 | CC1CN(C2CC2)CC1NC(=O)c1ccc2ncsc2c1 (stereo not drawn) | -17 | 1.82
32 | CNC(=O)c1cccc(-n2ccnc2-c2ccc(Cl)s2)c1 | 4 | -0.81
33 | CC(=O)N1C[C@@H](C(=O)N2CCN(c3ccccn3)CC2)[C@H](c2nc(C)no2)C1 | -8 | 1.17
34 | COc1ccc(N2CCN3c4ccc(Br)cc4CC4(C(=O)N(c5ccccc5)N=C4C)C3C2)cc1 (stereo not drawn) | -4 | 0.52
35 | CN(CCOc1ccc(F)cc1Cl)Cc1ncnn1C | -7 | 0.65
36 | O=S(=O)(Cc1nnnn1-c1ccccc1)c1ccc(F)cc1 | -10 | 1.25
37 | COc1ccnc(CN(C)C[C@H]2CCCO2)c1OC | -5 | 0.73
38 | CC(=O)N1CCC(NC(=O)COc2ccc3ncccc3c2)CC1 | 29 | -3.74
39 | Cc1ncsc1-c1nc(C(C)(C)NS(C)(=O)=O)no1 | 5 | -0.77
40 | O=C(Nc1nc2c(s1)CCC2)c1ccc2c(=O)n3c(nc2c1)CCCCCC3 | 1 | -0.16
41 | O=C(Nc1ccc(Br)cc1)c1c(F)c(F)c2c(c1F)N(Cc1ccco1)CCS2(=O)=O | 4 | -0.48
42 | Cc1ccc(C(=O)N/C(=N/c2ccc3c(c2)OCCO3)NC[C@H]2CCCO2)cc1C | -26 | 2.37
43 | Cc1cc(NS(=O)(=O)Cc2cccc(C(F)(F)F)c2)n(C)n1 | -4 | 0.83
44 | Cc1cc(CNC(=O)N2CC(N3CCCC[C@@H]3C)C2)ccn1 | -3 | 0.52
45 | O=C(NCC[C@H]1CCCN1)c1cn(C(c2ccccc2)c2ccccc2)nn1 | 11 | -2.11
46 | O=C(CCS(=O)(=O)c1ccccc1)N(Cc1ccccc1)c1nc2c(Cl)cccc2s1 | -13 | 1.87
47 | CC(C)CN1CCC([C@H]2c3nccn3CCCN2CC(C)C)CC1 | 3 | -0.5
48 | CN(CC(=O)Nc1ccccc1C(=O)NCCc1ccccc1)Cc1cccs1 | -36 | 4.25
49 | O=C(NCc1cccnc1)c1coc(COc2cccc(F)c2)n1 | 1 | -0.28
50 | O[C@H]1CN(CC2CCC(C(F)(F)F)CC2)CC12CC2 (stereo partly drawn) | 6 | -1
51 | CCN(Cc1nc(C(C)C)no1)S(=O)(=O)[C@H]1CCS(=O)(=O)C1 | 3 | -0.65
52 | Cc1ccc(-c2cc(=O)n(CC(=O)Nc3ccc(Cl)cc3)[nH]2)cc1 | -10 | 1.57
53 | c1ccc2c(-c3nc4c(c(NCCN5CCCC5)n3)CNC4)c[nH]c2c1 | 7 | -1.47
54 | O=C(N[C@H]1CCC[C@H]1CO)c1cc(F)cc2ccoc12 | -3 | 0.45
